The structures appear in SMILES notation. In all, about 310,000 compounds went through this assay and about 14,000 (4.5%) showed an effect of 50% or more. The effect is printed as a negative number. The list shows a part of the results. Where a SMILES comes first, the peptide text is derived from it. The star is where a group is joined. Boc = CC(C)(C)OC(=O)*

This is an account of results in article PMC4336329 (PLoS ONE, 2015).
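Further: peak tail current of the secondary pulse compared with the same well before compound.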

The target of this test is human ether-à-go-go-related gene (hERG) potassium channel (human, UniProt Q12809). Put plainly: primary screen, population patch clamp on CHO cells stably expressing hERG.
Sequence of human ether-à-go-go-related gene (hERG) potassium channel (Q12809 whole entry, looked up): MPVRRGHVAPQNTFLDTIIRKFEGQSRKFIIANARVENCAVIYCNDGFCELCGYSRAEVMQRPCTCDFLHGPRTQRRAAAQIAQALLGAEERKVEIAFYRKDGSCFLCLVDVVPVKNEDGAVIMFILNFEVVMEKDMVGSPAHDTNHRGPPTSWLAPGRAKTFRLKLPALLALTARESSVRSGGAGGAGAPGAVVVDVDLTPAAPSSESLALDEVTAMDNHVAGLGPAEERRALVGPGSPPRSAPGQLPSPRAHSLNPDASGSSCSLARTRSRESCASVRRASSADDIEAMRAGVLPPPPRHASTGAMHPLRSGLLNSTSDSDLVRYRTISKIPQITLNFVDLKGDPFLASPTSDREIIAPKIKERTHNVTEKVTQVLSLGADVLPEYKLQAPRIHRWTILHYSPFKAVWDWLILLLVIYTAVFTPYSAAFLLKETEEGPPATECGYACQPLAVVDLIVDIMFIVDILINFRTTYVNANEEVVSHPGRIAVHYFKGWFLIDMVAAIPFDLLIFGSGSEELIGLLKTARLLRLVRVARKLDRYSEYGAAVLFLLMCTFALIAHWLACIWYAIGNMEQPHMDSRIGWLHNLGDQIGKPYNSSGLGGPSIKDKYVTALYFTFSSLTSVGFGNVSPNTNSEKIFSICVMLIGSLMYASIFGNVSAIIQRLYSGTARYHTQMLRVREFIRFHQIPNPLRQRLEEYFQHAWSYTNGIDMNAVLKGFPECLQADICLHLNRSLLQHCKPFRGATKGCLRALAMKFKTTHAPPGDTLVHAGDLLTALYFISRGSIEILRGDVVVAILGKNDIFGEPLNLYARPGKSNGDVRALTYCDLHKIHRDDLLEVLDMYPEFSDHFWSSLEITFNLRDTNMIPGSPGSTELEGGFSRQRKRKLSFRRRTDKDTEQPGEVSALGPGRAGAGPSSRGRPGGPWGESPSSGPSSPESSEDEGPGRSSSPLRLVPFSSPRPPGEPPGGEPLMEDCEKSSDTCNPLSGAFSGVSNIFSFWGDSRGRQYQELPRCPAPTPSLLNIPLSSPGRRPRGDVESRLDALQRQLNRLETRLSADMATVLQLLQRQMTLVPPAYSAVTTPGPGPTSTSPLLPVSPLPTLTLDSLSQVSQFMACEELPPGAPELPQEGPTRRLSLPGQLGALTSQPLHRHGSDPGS
`CCCC(=O)N(CCN1CCOCC1)c1nc2c(OC)ccc(OC)c2s1.Cl`: the “hERG current change (%, negative = inhibition) at 10uM” value is listed as -15.5%. Take `N#Cc1ccc(NC(=O)COC(=O)CNC(=O)C2CCCCC2)cc1`: the “hERG current change (%, negative = inhibition) at 10uM” value is -18.8%. In the case of `COCCNC(=O)C(c1ccc(C)cc1)N(C(=O)C(=O)NC1CCCC1)c1ccc2c(c1)OCCO2` (stereo not drawn) it was 26%.

`CN(C)S(=O)(=O)c1cccc(COC(=O)c2cnccn2)c1`: the “hERG current change (%, negative = inhibition) at 10uM” value came to 15.6%. With `CCOc1ccc(Cl)cc1CSc1ncn[nH]1` the figure was -4.67%; with `O=C(CSCc1ccc(F)cc1)Nc1ccc(N2CCOCC2)cc1N1CCOCC1`, -47.4%; with `CS(=O)(=O)N(CC(=O)NCc1ccc(Cl)cc1)C1CCCCC1`, -26.1%.

`CC(=O)Nc1ccc(N(C(=O)c2ccco2)C(C(=O)NC2CCCC2)c2ccc(N(C)C)cc2)cc1` (stereo not drawn): the “hERG current change (%, negative = inhibition) at 10uM” value was -2.55%. In the case of `CCCCC(OC(=O)c1cc2occc2n1C)C(=O)NCC1CCCO1` (stereo not drawn) it was -31.8%. In the case of `COc1cccc(CNc2ccc(Br)cn2)c1O` it was -0.282%; in that of `O=C(NCc1ccccc1Cl)C(=O)c1c[nH]c2ccccc12`, 5.17%; in that of `COc1ccc(C(=O)OCC(=O)NCC2CCCO2)cc1[N+](=O)[O-]` (stereo not drawn), 2.12%. In the case of `Cc1ccccc1-c1nnc(SCc2ccc(F)cc2)o1` it was 6.05%; in that of `Cc1cccc(OCC(=O)Nc2cc(C)on2)c1`, -8.07%. For `O=C(c1ccccc1)c1ccc(NCCCn2ccnc2)c([N+](=O)[O-])c1`, the “hERG current change (%, negative = inhibition) at 10uM” value is -81.3%. With `CCOC(=O)[C@H]1[C@H]2COc3ccc(C)cc3[C@@H]2N2C(=O)[C@@H](CO)NC(=O)[C@@]12C` the figure was 11.6%; with `c1ccc(CN2CCN(c3ncccn3)CC2)cc1`, 11.6%; with `CC(NC(=O)C(NC(=O)C(Cc1c[nH]c2ccccc12)NC(=O)OC(C)(C)C)C(C)C)C(N)=O` (stereo not drawn) (Boc-Trp-Val-Ala-NH2; configuration not given here), 20.7%.

As to `CC(=O)c1cccc(NS(=O)(=O)c2ccc(-c3cc(C)no3)s2)c1`, the “hERG current change (%, negative = inhibition) at 10uM” value was 5.05%. With `COc1cc(SC)ccc1C(=O)NCc1ccc(C)cc1` the figure was -25.8%; with `C=CCNC(=S)N/N=C/c1ccc(C)cc1C`, 17.3%; with `O=C(CSc1nc(O)cc(=O)n1-c1ccccc1)Nc1ccc2c3c(cccc13)CC2`, 7.26%. In the case of `Cc1[nH]nc(SCC(=O)N(C)c2ccccc2)c1[N+](=O)[O-]` it was 15.5%. In the case of `COc1cc(/C=N\NC(=O)C2C(=O)NCC2c2ccccc2)cc(OC)c1O` (stereo not drawn), the “hERG current change (%, negative = inhibition) at 10uM” value turned out to be 7.57%. In the case of `O=C1C(=O)N(CCN2CCOCC2)C(c2cccnc2)/C1=C(/O)c1ccccc1` (stereo not drawn) it was 13.5%; in that of `COc1cc2ccccc2cc1C(=O)Nc1nnc(-c2ccncc2)o1`, -52.3%; in that of `CN(C)C(=O)Oc1ccc2oc(=O)cc(-c3cc4ccccc4o3)c2c1`, 10.7%. For the molecule `C/C(=N\NC(=O)c1nnn(-c2nonc2N)c1CSc1ccccc1)c1cccnc1`, the “hERG current change (%, negative = inhibition) at 10uM” value stood at 13.2%. With `O=C(COC(=O)CCCOc1ccccc1)NNC(=O)c1ccc([N+](=O)[O-])cc1` the figure was -16.6%; with `COc1cc(/C=N/N2CCOCC2)ccc1OCc1ccc(Cl)cc1`, -2.41%. With `Cc1cc(NS(=O)(=O)c2ccc(NC(=S)Nc3ccc(Cl)cc3C)cc2)no1` the figure was 12.8%; with `CC(=O)Nc1cccc(C(=O)OCc2ccccc2)c1`, -0.288%. In the case of `O=C(Nc1ccc(F)cc1)c1cnc(-c2ccccc2)nc1-c1ccccc1` it was -0.312%; in that of `Cn1ncc2c(NNC(=O)c3ccccc3Cl)ncnc21`, 10.1%; in that of `C/C(CC(=O)Nc1c(Cl)cccc1C(F)(F)F)=N\NC(=O)c1cnccn1`, 7.36%. On to `CN1CCN(C(=S)c2ccc(-c3cc(Cl)ccc3Cl)o2)CC1`, for which the “hERG current change (%, negative = inhibition) at 10uM” value is -20.7%. Turning to `O=[N+]([O-])c1ncc(Br)cc1Nc1ccccc1`, the “hERG current change (%, negative = inhibition) at 10uM” value is reported as 6.44%. For the molecule `COc1ccc(Cn2nnnc2C(CC(C)C)N2CCC(C(N)=O)CC2)cc1` (stereo not drawn), the “hERG current change (%, negative = inhibition) at 10uM” value is on record as -4.8%. In the case of `COc1ccc(NC(=O)c2nnn(CC(=O)Nc3ccc4c(c3)OCO4)c2N)cc1OC` it was 13.9%. Regarding `O=C(NNC(=O)c1ccccc1F)C1=NN(c2ccccc2)C(=O)CC1`, the “hERG current change (%, negative = inhibition) at 10uM” value is reported as 6.13%.

With `Cc1ccc(N(C(=O)c2csnn2)C(C(=O)NC(C)(C)C)c2ccncc2)cc1` (stereo not drawn), the “hERG current change (%, negative = inhibition) at 10uM” value is given as -3.09%. In the case of `CCCn1cnnc1CNC(=O)C1CCC(=O)N(CCc2ccc(OC)cc2)C1` (stereo not drawn) it was 22.5%. On to `CCOC(=O)c1cc(-c2ccccc2)sc1NC(=O)COC`, for which the “hERG current change (%, negative = inhibition) at 10uM” value was -13.6%.

For `COCCNC(=O)NC12CC3CC(CC(C3)C1)C2`, the “hERG current change (%, negative = inhibition) at 10uM” value turned out to be 22.2%.

With `Cc1cccc2sc(N(CCN(C)C)C(=O)/C=C/c3cccs3)nc12.Cl`, the “hERG current change (%, negative = inhibition) at 10uM” value is given as -20.4%.

As to `CCc1cc2cc(C)ccc2nc1SCC(=O)N1CC(=O)Nc2ccccc21`, the “hERG current change (%, negative = inhibition) at 10uM” value is -7.37%.

As to `O=C1[C@H]2[C@@H](/C=C/c3ccccc3)N3C(=O)CN(Cc4ccccn4)C(=O)[C@@]3(Cc3ccccc3)[C@H]2C(=O)N1c1ccccc1`, the “hERG current change (%, negative = inhibition) at 10uM” value is reported as -26.9%.

Take `Cc1ccc([N+](=O)[O-])cc1S(=O)(=O)Nc1ccc(N2CCOCC2)cc1`: the “hERG current change (%, negative = inhibition) at 10uM” value amounted to 25.8%. In the case of `CC(=O)NC(=S)Nc1ccc(NC(=O)COc2ccc(C(C)C)cc2)cc1` it was 13.3%; in that of `CCOc1ccc(C2CC(c3cccc(C)c3)n3nc(N)nc3N2)cc1` (stereo not drawn), -33.9%. Take `CN(C)CCCN1c2ccc([N+](=O)[O-])cc2CCc2cc([N+](=O)[O-])ccc21`: the “hERG current change (%, negative = inhibition) at 10uM” value is given as -50.3%.

For the molecule `Cc1cc(NC(=O)CSc2n[nH]c(-c3cccs3)n2)no1`, the “hERG current change (%, negative = inhibition) at 10uM” value came to 6.89%.

As to `Cc1cccc(/C=N/NC(=O)CN2CCCCCCC2)c1`, the “hERG current change (%, negative = inhibition) at 10uM” value is recorded as -45.9%.

For `CN(C)S(=O)(=O)n1cnc(C(CCO)c2ncn(S(=O)(=O)N(C)C)c2CCCO)c1` (stereo not drawn), the “hERG current change (%, negative = inhibition) at 10uM” value stood at 8.87%. In the case of `COc1cc(Cl)cc(/C=C/c2ccc3cccc(O)c3n2)c1OC` it was 13.7%; in that of `Cc1c(C(=O)N2CCN(C/C=C/c3ccccc3)CC2)oc2c(F)cccc12`, -35.7%; in that of `CC(C)n1c(O)c(N=NC(=O)CNC(=O)Cc2ccc(Cl)cc2)c2ccccc21`, -39.1%. In the case of `CCN(Cc1ccncc1)C(=O)c1cc(COc2ccc(OC)cc2Cl)on1` it was -22.6%; in that of `CCCc1cc(C(=O)NNC(=S)Nc2cccc(C)c2)cs1`, 8.4%; in that of `CCOc1ccc(-c2n[nH]c(C)c2-c2ccccn2)c(O)c1`, 13.6%. On to `CCn1c(=O)c(C(=O)NNC(=O)c2cccc(Cl)c2)c(O)c2ccccc21`, for which the “hERG current change (%, negative = inhibition) at 10uM” value came out at 32.4%. In the case of `CC(C)(C)NC(=O)C(c1ccncc1)N(C(=O)C1CSC(=O)C1)c1ccccc1` (stereo not drawn) it was 12.3%; in that of `COc1ccc(NC(=S)N(CCC(C)C)C(C)c2ccncc2)cc1` (stereo not drawn), -42.2%; in that of `c1ccc2c(Nc3ccc(N4CCOCC4)cc3)nc(N3CCOCC3)nc2c1`, -48.5%. With `COc1ccccc1NC(=S)NCCc1c[nH]c2ccccc12`, the “hERG current change (%, negative = inhibition) at 10uM” value is listed as -1.56%. In the case of `CCNS(=O)(=O)c1ccc(CCC(=O)Nc2ccc3c(c2)OCO3)cc1` it was 14.4%; in that of `COc1ccc(-c2cc(C(F)(F)F)nc(-n3cc(Br)cn3)n2)cc1`, -0.892%; in that of `O=C(O)c1ccc(N/N=C/c2cc3cc4c(cc3nc2Cl)OCCO4)cc1`, -4.78%. With `Nc1nnc(SCCCC(=O)c2ccc(F)cc2)s1` the figure was -7.48%. In the case of `Cc1ccc2cc(C)c3nnc(SCc4ccc(C(=O)O)cc4)n3c2c1C` it was 19.7%. As for `COc1ccc(/C=C/C(=O)OCc2cccc([N+](=O)[O-])c2)cc1`, the “hERG current change (%, negative = inhibition) at 10uM” value is listed as -9.66%. With `Cc1cc(SCc2ccc(C(F)(F)F)cc2)nc(=O)[nH]1` the figure was 15%; with `CCCCOc1ccc(C(=O)NCCCC(=O)N2CCCCC2)cc1`, -11.4%; with `C=CCSC1=C(C#N)C(c2ccccc2OCC)C(C#N)C(=O)N1` (stereo not drawn), -0.452%.

`Cc1ccc(-n2c(SCC(=O)NC3CCCCC3)nc3c(c2=O)SCC3)cc1`: the “hERG current change (%, negative = inhibition) at 10uM” value was 5.27%. With `COC(=O)C1=C(C)N(CC2CC2)C(=NCc2cccc(Cl)c2)N[C@H]1c1ccccc1` the figure was -72.3%; with `Cc1ccc(S(=O)(=O)Nc2ccccc2F)cc1C(=O)NCCCN1CCCC1=O`, -9.23%; with `O=[N+]([O-])c1ccc(CNCc2cc(Cl)ccc2O)cc1`, -25.9%. In the case of `COc1ccc(C(C(=O)NCc2ccc(F)cc2)N(C(=O)c2csnn2)C2CC2)cc1` (stereo not drawn) it was -23.7%; in that of `COc1ccc(C(=O)c2ccc(Cl)cc2Cl)cc1`, 9.42%; in that of `Cn1c(=O)n(CC(=O)Nc2ccccc2)c2ccccc21`, 3.1%. In the case of `CCNC(=O)C(=O)Nc1ccc([N+](=O)[O-])cc1` it was 2.37%; in that of `C=CCn1c(SCC(=O)NC2CC2)nc2sc(CC)cc2c1=O`, -54.6%. As to `Cc1cc(NCC2CCCO2)n2c(nc3ccccc32)c1C#N` (stereo not drawn), the “hERG current change (%, negative = inhibition) at 10uM” value is recorded as -21.2%. With `NC(=O)c1sc(=S)n2c1[nH]c(=O)c1sccc12` the figure was 12.9%; with `Cc1cc2n(n1)C(c1cccs1)Nc1ccccc1-2` (stereo not drawn), -44.4%. In the case of `Cc1onc(-c2c(F)cccc2Cl)c1C(=O)OCc1cnc(Cl)s1` it was -3.61%.
